Results from PubChem BioAssay AID1477 (National Center for Advancing Translational Sciences (NCATS), 2009).
In all, about 230,000 compounds went through this assay and fewer than 10 were called active. Inconclusive means that the source gave no clear call. Such entries were picked first, then a sample of the others. Calls come from the whole dose curve; as a rule, active = well fitted curve in the direction sought with a large enough effect; inconclusive = small, poorly fitted or top-dose-only effect, or effect the other way, or another doubt; inactive = no such curve, though single readings can be large or run the other way. No potency is given beside an inconclusive call; the fits are too rough.

Each compound was assayed against Runt-related transcription factor 1 (Homo sapiens) + Core-binding factor subunit beta (Homo sapiens) (UniProt Q01196+Q13951) (assay: qHTS Assay for Compounds Blocking the Interaction Between CBF-beta and RUNX1 for the Treatment of Acute Myeloid Leukemia). Conditions: AlphaScreen CBFb-His/RUNX1-biotin binding, biochemical; activity, negative = inhibition: at 59.8 µM (top of the series) unless noted.
How it was run: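 Inhibition was taken as any reduction in AlphaScreen signal from the CBF-beta–RUNX1 pair (His and biotin tags, 30 nM each), measured after compound (15 min) and bead (90 min) incubations at room temperature.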
Throughout, for activity, negative = inhibition: % of control where 0% means no effect.

Chain of UniProt Q01196 (Q01196 whole entry, looked up): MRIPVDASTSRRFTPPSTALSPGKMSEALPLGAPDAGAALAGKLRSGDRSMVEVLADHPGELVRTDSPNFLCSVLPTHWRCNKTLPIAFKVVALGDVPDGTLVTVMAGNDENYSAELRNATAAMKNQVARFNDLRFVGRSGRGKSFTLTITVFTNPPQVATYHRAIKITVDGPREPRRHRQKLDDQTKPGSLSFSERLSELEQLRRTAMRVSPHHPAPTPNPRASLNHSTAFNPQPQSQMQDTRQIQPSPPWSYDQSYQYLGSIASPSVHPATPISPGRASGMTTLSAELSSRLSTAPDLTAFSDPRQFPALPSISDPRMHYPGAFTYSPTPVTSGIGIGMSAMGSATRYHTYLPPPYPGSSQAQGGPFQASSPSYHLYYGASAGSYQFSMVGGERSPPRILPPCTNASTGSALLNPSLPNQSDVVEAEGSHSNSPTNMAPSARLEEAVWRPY
Chain of UniProt Q01196 (Q13951 whole entry, looked up): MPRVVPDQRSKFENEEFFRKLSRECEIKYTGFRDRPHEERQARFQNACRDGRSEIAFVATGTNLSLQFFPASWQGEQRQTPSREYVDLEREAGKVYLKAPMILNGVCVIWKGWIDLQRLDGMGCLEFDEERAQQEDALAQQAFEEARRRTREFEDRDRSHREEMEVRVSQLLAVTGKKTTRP

| Structure (SMILES) | Potency | activity, negative = inhibition |
| --- | --- | --- |
| CCCN(C(=O)c1cc2c(s1)CCC2)c1c(N)n(Cc2ccccc2)c(=O)[nH]c1=O | inconclusive [inhibitor, single point] | – |
| O=C(c1ccccc1)c1sc(N2CCCCCC2)nc1-c1ccccc1 | inconclusive [activator, single point] | – |
| COC(=O)CSc1nc(N2CCOCC2)c2c(c1C#N)CCCC2 | – | inactive: 11.1% |
| Cc1nn(C)cc1/C=N/NC(=S)Nc1ccccc1 | – | inactive: -6.56% |
| CCOC(=O)NNc1ccc2nonc2c1[N+](=O)[O-] | inconclusive [inhibitor, single point] | – |
| CCOP(=O)(OCC)c1nc(/C=C/c2ccccc2)oc1NCc1ccc(OC)cc1 | inconclusive [activator, single point] | – |
| Cc1ccc(Oc2ccc(NC(=O)c3ccco3)cc2)cc1 | – | inactive: 5.44% |
| Cc1cccc(C2c3[nH]c4ccccc4c3CCN2Cc2cccn2-c2ncccn2)c1 (centres undefined) | inconclusive [inhibitor, single point] | – |
| COCCN=c1scc(-c2ccc3c(c2)NC(=O)CO3)n1/N=C(\C)c1ccc(O)cc1 | – | inactive: -23.9% |
| COc1ccc(CCN(C)S(=O)(=O)c2ccc(Cl)nc2)cc1OC | – | inactive: 1.63% |
| CC1CCCC(C)N1NC(=S)Nc1ccc(OC(F)F)cc1 (centres undefined) | – | inactive: 28.8% |
| Cc1ccn(CC(=O)N/N=C/c2cc([N+](=O)[O-])ccc2O)n1 | inconclusive [inhibitor, full curve] | – |
| COc1ccc(-c2[nH]c(-c3cc(OC)c4c(c3)OCO4)nc2-c2ccccc2)cc1 | inconclusive [inhibitor, single point] | – |
| CC(C)C(OC(=O)c1nsc(Cl)c1Cl)C(=O)NCc1ccc2c(c1)OCO2 (centres undefined) | – | inactive: 2.39% |
| COc1cc2ccccc2cc1C(=O)NC(=S)Nc1cccc(C(=O)O)c1 | inconclusive [inhibitor, single point] | – |
| COc1ccc(NC(=O)c2csc(Cc3ccc(Cl)cc3)n2)cc1 | inconclusive [activator, partial curve] | – |
| O=C1c2cccnc2C(Nc2ccc(Br)cc2)N1Cc1cccs1 (centres undefined) | – | inactive: -6.23% |
| COc1cc(NC2CCCCC2O)c2nc(-c3ccc(Cl)cc3)ccc2c1 (centres undefined) | inconclusive [activator, single point] | – |
| Cc1cc([N+](=O)[O-])ccc1NC1CCCC1 | inconclusive [inhibitor, single point] | – |
| Cc1ccc(-n2c(N)c(C(=O)Nc3ccccc3F)sc2=S)cc1C | inconclusive [inhibitor, single point] | – |
| COc1ccccc1N1CCNCC1 | inactive | – |
| O=C(COC(=O)CCOc1ccccc1)NCc1ccco1 | inconclusive [inhibitor, single point] | – |
| COc1cc(C=O)ccc1OCc1cccc(Br)c1 | inconclusive [activator, single point] | – |

| Structure (SMILES) | Potency | activity, negative = inhibition |
| --- | --- | --- |
| O=C1CCCC2=C1C(c1ccc(Br)cc1)c1c([nH]c(=S)[nH]c1=O)N2 (centres undefined) | inconclusive [inhibitor, single point] | – |
| CCNc1nc(NCC)nc(C(=O)Nc2ccccc2)n1 | inconclusive [inhibitor, partial curve] | – |
| Cn1ncc2c(N3CCN(c4ccc(Cl)c(Cl)c4)CC3)ncnc21 | – | inactive: 0.841% |
| CN(Cc1ccccc1)C(=O)COC(=O)c1ccccc1Nc1ccccc1 | inconclusive [activator, partial curve] | – |
| COc1ccc(NC(=O)c2cc(-c3ccco3)nc3ccccc23)cc1S(=O)(=O)N1CCOCC1 | inconclusive [inhibitor, full curve] | – |
| Nc1[nH]n(-c2ccccc2)c(=O)c1N=Nc1ccccc1 | inconclusive [inhibitor, partial curve] | – |
| Cc1cc(/C=N/n2cnnc2)c(C)n1-c1ccc(OCc2ccc(Cl)cc2)cc1 | inconclusive [inhibitor, single point] | – |
| Cc1cccnc1Nc1nc(-c2ccc(O)c(O)c2)cs1 | inconclusive [inhibitor, single point] | – |
| COc1ccc(NC(=O)c2ccccc2)c([N+](=O)[O-])c1 | inconclusive [inhibitor, partial curve] | – |
| CCCN1C(=O)CC(c2ccco2)Sc2ccccc21 (centres undefined) | – | inactive: -8.64% |
| Cc1ccc(COC(=O)c2nn(-c3ccccc3)nc2N)cc1 | inconclusive [activator, partial curve] | – |
| O=C1COc2ccc(N3C(=O)C=CC3=O)cc2N1 | inconclusive [inhibitor, single point] | – |
| Cc1onc(-c2c(Cl)cccc2Cl)c1COC(=O)c1ccc([N+](=O)[O-])cc1 | inconclusive [inhibitor, single point] | – |
| CCc1ccc2c(c1)C1(NN=C(c3cccc4ccccc34)S1)C(=O)N2 (centres undefined) | inconclusive [inhibitor, single point] | – |
| Nc1c(C(=O)Nc2ccccc2)sc2nc3c(c(-c4ccco4)c12)CCCC3 | inconclusive [activator, partial curve] | – |
| Oc1ccc2ccccc2c1C1Nc2cccc3cccc(c23)N1 | inconclusive [inhibitor, partial curve] | – |
| COc1ccc(Nc2nnc(-c3ccc(N4CCOCC4)c([N+](=O)[O-])c3)c3ccccc23)cc1 | inconclusive [inhibitor, single point] | – |
| Cc1ccc(-c2nnc(SCc3ccccc3F)o2)cc1 | inconclusive [activator, single point] | – |
| O=c1c2cc([N+](=O)[O-])ccc2nc(CN2CCN(c3ccccn3)CC2)n1-c1ccccc1F | inconclusive [inhibitor, single point] | – |
| COc1cccc(C(O)c2cnc(C(C)C)n2C)c1 (centres undefined) | – | inactive: 0.0515% |
| Cn1cnnc1SCC(=O)Nc1ccc(OCc2ccccc2)cc1 | inconclusive [activator, single point] | – |
| COc1ccc(OC)c(C2OCCC=CC2C)c1 (centres undefined) | – | inactive: 8.27% [at 13.1 µM] |
| CCOc1ccc(NC(=O)c2ccccc2NS(=O)(=O)c2ccc(F)cc2)c([N+](=O)[O-])c1 | inconclusive [inhibitor, partial curve] | – |

| Structure (SMILES) | Potency | activity, negative = inhibition |
| --- | --- | --- |
| CC(=O)c1c(O)c(C)c(O)c(Cc2c(O)c3c(c(C(=O)/C=C/c4ccccc4)c2O)OC(C)(C)C=C3)c1O | inconclusive [inhibitor, full curve, poor fit] | – |
| CCc1nnc(NC(=O)CSc2ccc(-c3ccco3)nn2)s1 | inconclusive [inhibitor, single point] | – |
| CCOc1ccc(C(C)=O)cc1CN1C(=O)NC(C)(C2CC2)C1=O (centres undefined) | inconclusive [inhibitor, full curve, poor fit] | – |
| Cc1cc2c(cc1C)N(C(=O)CN1C(=O)c3ccccc3C1=O)C(C)(C)c1ssc(=S)c1-2 | inconclusive [inhibitor, partial curve] | – |
| COc1cc(SC)ccc1C(=O)Nc1ccccc1 | inconclusive [activator, single point] | – |
| CCN1CCN(C(=O)Nc2ccccc2OC)CC1 | – | inactive: 1.74% |
| COc1ccccc1NC(=O)OCC#CCOC(=O)Nc1ccccc1OC | inconclusive [activator, partial curve] | – |
| CCC(C(=O)O/N=C(\N)c1ccc(C)cc1)c1ccccc1 (centres undefined) | inconclusive [activator, single point] | – |
| Cc1ccsc1/C=N/Nc1nc(=O)[nH]nc1C | inconclusive [inhibitor, partial curve] | – |
| Cc1ccc(C(=O)OCC(=O)NCc2ccco2)s1 | inconclusive [inhibitor, single point] | – |
| COc1ccccc1N1CCN(Cc2c(F)cccc2Cl)CC1 | – | inactive: -4.73% |
| COC(=O)c1ccc(C23CC2(C(NP(=O)(c2ccccc2)c2ccccc2)c2ccccc2)C3)cc1 (centres undefined) | – | inactive: -17.1% |
| COc1ccc(-c2nc3c(-c4ccc(F)cc4)cnn3cc2C)cc1F | inconclusive [activator, single point] | – |
| COC(=O)c1ccc(NC(=S)NNC(=O)CC(C)C)cc1 | – | inactive: 5.5% |
| Cc1ccc(O)c(C2=Nc3ccccc3N=C(c3cccs3)C2)c1 | inconclusive [activator, partial curve] | – |
| CCc1nnc(NC(=O)c2ccc(S(=O)(=O)N(C)c3ccccc3)cc2)o1 | inconclusive [inhibitor, single point] | – |
| CSc1ccc(CNc2ccccn2)cc1 | inconclusive [inhibitor, single point] | – |
| COc1ccc(NC(=O)C(c2cc3c(cc2[N+](=O)[O-])OCO3)N(C)c2ccccc2)cc1 (centres undefined) | inconclusive [inhibitor, single point] | – |
| Cn1c(=O)cc2c3c(c(N4CCCCC4)ccc31)C(=O)c1ccccc1-2 | inconclusive [inhibitor, partial curve] | – |
| CCN(CC)S(=O)(=O)c1ccc(Cl)c(C(=O)Nc2ccc(Cl)cc2[N+](=O)[O-])c1 | inconclusive [inhibitor, partial curve] | – |
| COc1ccc(-c2cc(=O)c3ccc(O)cc3o2)cc1 | inactive | – |
| COc1cc(C=O)ccc1OCc1ccccc1Br | inconclusive [activator, single point] | – |
| CN(C)/N=C/c1ccc(P(c2ccc(/C=N/N(C)C)o2)c2ccc(/C=N/N(C)C)o2)o1 | inconclusive [inhibitor, single point] | – |
